No constants are given. Whether binding was seen depends on the method and setting. Binding seen in cells or lysates may run through a third protein. Some results given as binding are weak or reduced against the parent protein; the word gives no strength. For part of these data: Where a sequence is shown, tags or fusion partners need not be part of it.

By UniProt entry, the sequences of proteins in these tests, tags left out.
UniProt Q969R5: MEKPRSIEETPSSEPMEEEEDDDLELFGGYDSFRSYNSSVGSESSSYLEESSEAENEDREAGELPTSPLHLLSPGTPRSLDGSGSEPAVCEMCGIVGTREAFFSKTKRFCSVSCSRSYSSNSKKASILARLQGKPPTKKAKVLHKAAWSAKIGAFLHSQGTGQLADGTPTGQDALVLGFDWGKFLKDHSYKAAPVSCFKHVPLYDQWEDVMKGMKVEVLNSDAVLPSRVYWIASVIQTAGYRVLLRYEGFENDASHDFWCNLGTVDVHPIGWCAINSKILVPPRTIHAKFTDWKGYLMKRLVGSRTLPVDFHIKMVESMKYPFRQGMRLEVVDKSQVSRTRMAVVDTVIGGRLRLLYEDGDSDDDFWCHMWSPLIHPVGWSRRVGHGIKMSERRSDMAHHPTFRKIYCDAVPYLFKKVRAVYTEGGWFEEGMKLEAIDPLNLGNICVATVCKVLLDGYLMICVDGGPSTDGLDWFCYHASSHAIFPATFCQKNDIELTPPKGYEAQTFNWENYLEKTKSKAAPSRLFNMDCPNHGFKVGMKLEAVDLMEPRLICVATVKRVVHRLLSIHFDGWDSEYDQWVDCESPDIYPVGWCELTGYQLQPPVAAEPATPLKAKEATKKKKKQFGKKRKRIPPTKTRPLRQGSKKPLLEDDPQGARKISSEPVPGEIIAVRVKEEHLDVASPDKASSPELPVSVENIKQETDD
UniProt P61244: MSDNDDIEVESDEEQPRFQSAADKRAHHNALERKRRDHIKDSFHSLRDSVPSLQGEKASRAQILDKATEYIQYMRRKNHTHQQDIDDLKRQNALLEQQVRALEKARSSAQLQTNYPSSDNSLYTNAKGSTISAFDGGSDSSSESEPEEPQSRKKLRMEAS

We go through 3 molecules from paper PMC10543392.

Assay [1] addresses T1, MGA p.C623*, Flag-tagged (UniProt Q8IWI9).
T1 sequence: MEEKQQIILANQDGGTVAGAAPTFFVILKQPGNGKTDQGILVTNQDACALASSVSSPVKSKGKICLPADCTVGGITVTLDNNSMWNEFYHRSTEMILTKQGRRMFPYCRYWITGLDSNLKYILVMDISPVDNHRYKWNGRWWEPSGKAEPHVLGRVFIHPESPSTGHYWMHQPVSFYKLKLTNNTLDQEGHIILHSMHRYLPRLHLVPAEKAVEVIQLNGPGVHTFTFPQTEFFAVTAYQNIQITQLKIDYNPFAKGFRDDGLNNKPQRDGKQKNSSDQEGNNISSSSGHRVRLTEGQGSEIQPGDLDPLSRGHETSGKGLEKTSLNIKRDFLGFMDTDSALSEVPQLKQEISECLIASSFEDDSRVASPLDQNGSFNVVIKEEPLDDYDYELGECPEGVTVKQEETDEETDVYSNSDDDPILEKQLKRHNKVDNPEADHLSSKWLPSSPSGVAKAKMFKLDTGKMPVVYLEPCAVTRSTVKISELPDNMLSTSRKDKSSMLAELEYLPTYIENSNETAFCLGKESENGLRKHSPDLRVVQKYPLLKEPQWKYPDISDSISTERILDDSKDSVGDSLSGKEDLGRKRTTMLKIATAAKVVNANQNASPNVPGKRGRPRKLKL
Nature of the assay: co-IP; Flag-tagged MGA constructs co-expressed with HA-tagged MAX in HEK293T cells; immunoprecipitation, then western blot for components of the ncPRC1.6 complex. For orientation: A western blot detects proteins with antibodies after separation by electrophoresis.

For assay [2], the target named is full-length MGA (WT-MGA), Flag-tagged (UniProt Q8IWI9). The assay is described as above.

In the case of L3MBTL2 (from UniProt Q969R5 1-705), the binding result is listed as “no binding” in assay [1] and “binds” in assay [2].

With “HA-tagged MAX (from UniProt P61244 1-160)”, the binding entry is “no binding” in assay [1] and “binds” in assay [2].

B1: PCGF6 (protein, UniProt Q9BYE7 1-350)
chain: MEGVAVVTAGSVGAAKTEGAAALPPPPPVSPPALTPAPAAGEEGPAPLSETGAPGCSGSRPPELEPERSLGRFRGRFEDEDEELEEEEELEEEEEEEEEDMSHFSLRLEGGRQDSEDEEERLINLSELTPYILCSICKGYLIDATTITECLHTFCKSCIVRHFYYSNRCPKCNIVVHQTQPLYNIRLDRQLQDIVYKLVINLEEREKKQMHDFYKERGLEVPKPAVPQPVPSSKGRSKKVLESVFRIPPELDMSLLLEFIGANEGTGHFKPLEKKFVRVSGEATIGHVEKFLRRKMGLDPACQVDIICGDHLLEQYQTLREIRRAIGDAAMQDGLLVLHYGLVVSPLKIT
Turning to B1, the values for the binding result in assay [1] and in assay [2] were “no binding” and “binds”, respectively.
